Among all 390,000 compounds or so, about 150 (0.038%) were called active. Inconclusive means that the source gave no clear call. Such entries were picked first, then a sample of the others. The call rests on the fitted dose curve; in most records, active means well fitted inhibition curve with a large enough effect; inconclusive means small, poorly fitted or top-dose-only effect; inactive means no such curve, though single readings can be large or run the other way. A potency beside an inconclusive call is a rough fit, not a confirmed value.
Each molecule was assayed against Regulator of G-protein signaling 4 (Homo sapiens) (UniProt P49798) (assay: Inhibitors of Regulator of G Protein Signaling (RGS) 4: qHTS). Details: Transcreener GDP fluorescence polarization, RGS4-accelerated GTP hydrolysis; series mostly up to 114 µM; activity change, negative = inhibition: at the top concentration.
UniProt P49798, sequence (P49798 whole entry, looked up): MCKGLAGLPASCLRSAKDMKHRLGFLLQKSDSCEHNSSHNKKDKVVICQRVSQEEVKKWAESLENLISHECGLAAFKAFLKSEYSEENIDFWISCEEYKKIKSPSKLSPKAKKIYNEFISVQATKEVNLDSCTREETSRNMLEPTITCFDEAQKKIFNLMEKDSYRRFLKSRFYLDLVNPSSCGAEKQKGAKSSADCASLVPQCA
Method in brief: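 MLSMR compounds (23 nl, pin-transferred) preincubated 10 min at room temperature with a 500nM (2x) first reagent, then RGS4 at 900nM (2x) plus Transcreener GDP mix added; fluorescence polarization (620/688 nm) read before and after 90 min at 30 °C.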
Further: nearly all actives have a fitted effect of over 75% in size.
On the % scale 0 is the no-effect control and ±100 the full control effect; potency means the concentration at half of the fitted maximal effect; tags describe the fitted curve by direction and shape.

SMILES	activity change, negative = inhibition	Potency
COc1cccc(N2CCN(c3c(C#N)c(C(F)(F)F)nn3C)CC2)c1	inactive: 1.06%	
COc1ccc2oc(C(=O)OCC(=O)N3CCCC3=O)c(C)c2c1	inactive: -15.2%	
Cc1ccc(S(=O)(=O)c2nnn3c2nc(NCc2cccs2)c2sccc23)cc1C	inactive: -5.28%	
CCCc1nnc(SCC(=O)N2CCCC(C)C2)n1CCOC (stereo not given)	inactive: 25.4%	
CC1CC(C)CN(c2oc(Cc3ccccc3)nc2C#N)C1 (stereo not given)	inactive: 13.7%	
CCC(=O)N/C(N)=N/c1nc(C)c2cc(OC)ccc2n1	inactive: -7.4%	
Cc1nc(N)sc1-c1csc(Nc2ccccn2)n1		inconclusive: 56.2 µM [inhibitor, partial curve, poor fit]
CN1CCN(CCCNC(=O)c2ccc(CSCc3cccc(Cl)c3)o2)CC1	inactive: -9.96%	
CC(=O)/C(N=Nc1cc2c(cc1[N+](=O)[O-])OCCO2)=C(\C)O		inconclusive: 20 µM [inhibitor, full curve, poor fit]
CCCCNC(=O)CC1N=C2c3ccccc3N=C(SCC(=O)Nc3cccc(C)c3)N2C1=O (stereo not given)		inconclusive: 89.1 µM [inhibitor, single point]
CCc1ccc(/C=N/NC(=O)c2cc(-c3ccncc3)nc3ccccc23)s1		inconclusive: 79.4 µM [inhibitor, single point]
O=C(N/N=C/C=C/c1ccccc1)c1ccncc1		inconclusive: 79.4 µM [inhibitor, partial curve, poor fit]
O=C(CSc1nnc(SCc2cccc3ccccc23)s1)Nc1ccc(C(=O)O)cc1		inconclusive: 17.8 µM [inhibitor, full curve, poor fit]
Cc1oc(-c2ccc(F)cc2)cc1-c1nn2c(-c3ccoc3C)nnc2s1		inconclusive: 79.4 µM [inhibitor, partial curve, poor fit]
COc1cc(C(=O)Nc2nc(C)c(Cc3ccc4c(c3)OCO4)s2)cc(OC)c1OC		inconclusive: 100 µM [inhibitor, partial curve, poor fit]
Cc1ccc(NC(=O)Nc2ccc(Cl)cn2)cc1	inactive: 0.984%	
Cc1ccc(-c2nc3c(c(=O)[nH]c(=O)n3Cc3ccccc3)n2Cc2ccccc2)o1		inconclusive: 17.8 µM [inhibitor, full curve, poor fit]
O=C1NC(=O)/C(=C\c2ccc(Cl)nc2)S1		inconclusive: 28.2 µM [inhibitor, full curve, poor fit]
O=C(N/N=C/c1ccccc1Cl)c1nc2ccc([N+](=O)[O-])cc2c(=O)[nH]1		inconclusive: 17.8 µM [inhibitor, full curve, poor fit]
CC(=O)C1(O)CCC2C3CC(C)C4=CC(=O)C=CC4(C)C3(F)C(O)CC21C (stereo not given)		inconclusive: 89.1 µM [inhibitor, single point]
O=C(/C=C/c1ccc[nH]1)c1ccccc1		inconclusive: 39.8 µM [inhibitor, partial curve, poor fit]
O=C(Nc1ncc(S(=O)(=O)c2ccc([N+](=O)[O-])cc2)s1)c1cccc2ccccc12		inconclusive: 89.1 µM [inhibitor, single point]
NC(=S)N/N=C1\CCOc2ccc(Cl)cc21		inconclusive: 89.1 µM [inhibitor, partial curve, poor fit]

SMILES	activity change, negative = inhibition	Potency
COc1ccc2[nH]c3c(=O)n(CCCCC(=O)NCCN4CCCC4)c(=S)[nH]c3c2c1	inactive: -31.4%	
CCn1c(CSc2nnc3ccccn23)nc2cc(C(=O)O)ccc21		inconclusive: 50.1 µM [inhibitor, partial curve, poor fit]
CSc1ccc(S(=O)(=O)NCc2ccccc2C)cc1		inconclusive: 70.8 µM [inhibitor, partial curve, poor fit]
O=C(Nc1cccc(-c2nc3ncccc3o2)c1)c1cc2ccccc2o1		inconclusive: 79.4 µM [inhibitor, partial curve, poor fit]
CCOC(=O)c1cnc2ccccc2c1Nc1cccc(C(=O)O)c1		inconclusive: 50.1 µM [inhibitor, partial curve, poor fit]
Cc1nnc(SCC(=O)Nc2cccc(N)c2)n1-c1ccccc1		inconclusive: 79.4 µM [inhibitor, partial curve, poor fit]
O=C(CCc1ccccc1)N(Cc1cccnc1)c1nc2c(F)cc(F)cc2s1	inactive: -4.63%	
COc1ccc(CN(C)C[C@H]2Oc3c(NC(=O)Nc4ccccc4)cccc3C(=O)N([C@H](C)CO)C[C@@H]2C)cc1	inactive: -1.66%	
Cc1cc(C)nc(Nc2ccc(N3CCCC3)cc2)n1		inconclusive: 89.1 µM [inhibitor, partial curve, poor fit]
Cc1cccnc1NC(=O)c1ccc(S(=O)(=O)N2CCCCC2)cc1	inactive: 8.04%	
CCN(CC(=O)NC(C)C)Cc1nc2sc3c(c2c(=O)[nH]1)CCC3	inactive: 24.5%	
Cc1cccn2c(=O)cc(CSc3nnc(NC(=O)COc4ccc(F)cc4)s3)nc12		inconclusive: 56.2 µM [inhibitor, partial curve, poor fit]
Cc1ccc(C)c(S(=O)(=O)Nc2ccc3scnc3c2)c1		inconclusive: 100 µM [inhibitor, partial curve, poor fit]
Cc1ccc(NNC(=O)Nc2ccc(Cl)cc2)nn1		inconclusive: 50.1 µM [inhibitor, partial curve, poor fit]
O=C(Nc1ccc(Cl)cc1)OCc1cncs1	inactive: -2.71%	
c1ccc2sc(NN=C3CCCC3)nc2c1		inconclusive: 89.1 µM [inhibitor, single point]
COc1ccc(-c2coc3cc(OC4OC(CO)C(O)C(O)C4O)cc(O)c3c2=O)cc1 (stereo not given)	inactive: 24%	
CCOC(=O)c1nc2cc3n(c(CC(C)C)c-2c1C)CC(C)=C3C		inconclusive: 79.4 µM [inhibitor, single point]
CCC(COC)NCc1cn(-c2ccc(F)cc2F)nc1-c1ccccc1C (stereo not given)	inactive: -16.6%	
C=CCOc1ccc(/C=C2/C(=O)ON=C2C)cc1OCC		inconclusive: 50.1 µM [inhibitor, partial curve, poor fit]
CCCn1nnnc1-c1ccc(Cl)cc1	inactive: -14.8%	
O=[N+]([O-])c1ccc2c(c1N1CCCCC1)=NC1(CCCCC1)[N+]=2[O-]		inconclusive: 20 µM [inhibitor, full curve, poor fit]

From PubChem BioAssay AID504845 (National Center for Advancing Translational Sciences (NCATS), 2011)
